# The campaign covered roughly 310,000 compounds. About 2,200 (0.71%) showed an effect of 50% or more. The effect is printed as a negative number. This is one part of the list.
# Molecular target: human ether-à-go-go-related gene (hERG) potassium channel (human, UniProt Q12809)
# Test: primary screen, population patch clamp on CHO cells stably expressing hERG
# Chain of human ether-à-go-go-related gene (hERG) potassium channel (Q12809 whole entry, looked up): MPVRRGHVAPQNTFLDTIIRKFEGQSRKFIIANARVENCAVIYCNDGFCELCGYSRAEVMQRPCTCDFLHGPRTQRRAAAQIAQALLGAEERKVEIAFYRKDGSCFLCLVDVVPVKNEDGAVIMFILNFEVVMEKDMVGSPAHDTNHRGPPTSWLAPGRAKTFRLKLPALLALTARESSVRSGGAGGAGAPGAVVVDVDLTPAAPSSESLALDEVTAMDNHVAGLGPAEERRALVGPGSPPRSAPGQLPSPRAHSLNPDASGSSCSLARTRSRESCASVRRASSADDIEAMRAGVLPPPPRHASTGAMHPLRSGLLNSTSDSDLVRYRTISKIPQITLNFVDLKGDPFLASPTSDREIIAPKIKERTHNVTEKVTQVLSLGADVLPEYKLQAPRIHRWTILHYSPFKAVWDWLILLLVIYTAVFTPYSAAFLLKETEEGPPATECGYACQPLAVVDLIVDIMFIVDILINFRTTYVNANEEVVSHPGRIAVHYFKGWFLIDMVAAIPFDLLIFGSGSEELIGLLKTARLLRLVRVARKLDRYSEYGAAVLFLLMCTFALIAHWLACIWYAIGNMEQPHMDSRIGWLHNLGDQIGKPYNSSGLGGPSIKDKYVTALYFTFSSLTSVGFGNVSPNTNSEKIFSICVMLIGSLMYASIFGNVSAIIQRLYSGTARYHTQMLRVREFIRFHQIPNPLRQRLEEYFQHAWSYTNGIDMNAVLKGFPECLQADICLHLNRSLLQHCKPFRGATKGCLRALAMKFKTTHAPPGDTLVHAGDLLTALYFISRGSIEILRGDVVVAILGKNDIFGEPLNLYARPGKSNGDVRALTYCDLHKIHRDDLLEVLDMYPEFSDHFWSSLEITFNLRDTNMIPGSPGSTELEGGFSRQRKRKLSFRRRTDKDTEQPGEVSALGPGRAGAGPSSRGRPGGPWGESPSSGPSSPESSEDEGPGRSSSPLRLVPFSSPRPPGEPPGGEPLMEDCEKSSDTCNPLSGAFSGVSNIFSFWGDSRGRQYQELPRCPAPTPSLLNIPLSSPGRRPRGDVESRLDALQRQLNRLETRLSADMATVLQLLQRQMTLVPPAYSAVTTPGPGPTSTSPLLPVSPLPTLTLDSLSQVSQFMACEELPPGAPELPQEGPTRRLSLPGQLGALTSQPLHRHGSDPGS
row,SMILES,"hERG current change (%, negative = inhibition) at 1uM [%]"
1,CCOc1ccc(-n2c(COc3ccc(C)cc3)nnc2SCC(N)=O)cc1,-0.543
2,CC(C)c1nc2oc3ccccc3c(=O)c2c(=O)n1-c1ccccc1,6.91
3,O=C1CSC(c2cn(-c3ccccc3)nc2-c2cc3ccccc3o2)N1Cc1ccccc1 (stereo not shown),15.1
4,CCN(CC)CCNC(=O)Cn1cnc2sc(C)c(S(=O)(=O)N3CC(C)CC(C)C3)c2c1=O (stereo not shown),19
5,O=C(COC(=O)c1ccc2ccccc2c1O)NCC(F)(F)F,-4.71
6,COc1ccc(/C=C\C(=O)CC(O)(c2ccccc2)C(F)(F)F)cc1 (stereo not shown),9.07
7,O=C(/C=C/c1ccco1)Oc1ccc(C(=S)N2CCOCC2)cc1,7.78
8,COc1cccc(OCC(=O)NNC(=O)Cc2cccs2)c1,16
9,O=C(NCc1cccs1)c1cc2c(s1)CCCC2,7.37
10,O=C(Cn1nnc(-c2ccccc2F)n1)OCC(=O)c1ccccc1,20.1
11,CC(=O)Cn1cnc2c(sc3nc(C)cc(C)c32)c1=O,14.4
12,COc1ccc(OC)c(C(=O)c2ccc(C(=O)N3CCN(Cc4csc(C)n4)CC3)cc2)c1,8.66
13,Cc1cc(C)n(C(=O)c2ccc(Cl)c(F)c2F)n1,10.6
14,CC(C(=O)N1CCN(C)CC1)N1C(=O)c2ccccc2C1=O (stereo not shown),20.1
15,CCN(CC)C(=O)c1ccc(NC(=O)c2cccc(C(F)(F)F)c2)cc1,7.85
16,O=C1NC(CCc2ccccc2)C(=O)N1Cc1ccc(Br)cc1 (stereo not shown),0.772
17,O=[N+]([O-])c1cccc(/C=N\N2CCN(c3ccc(Cl)cc3)CC2)c1,13.3
18,CC(=O)Oc1ccc(-c2ccc(C(=O)O)cc2)cc1,7.28
19,CC(C)C(c1nnnn1C1CCCC1)N1CCC(C(N)=O)CC1 (stereo not shown),10.9
20,CCOc1ccccc1-n1c(SCC(N)=O)nnc1-c1ccco1,-5.22
21,O=C(Cc1c(O)c2ccccc2[nH]c1=O)NCc1cccc(F)c1,-1.24
22,O=[N+]([O-])c1ccc(N2CCN(Cc3ccc4c(c3)OCO4)CC2)nc1,-29.2
23,COc1cc(/C=C/C(=O)OCC(=O)Nc2ccccc2Cl)cc(OC)c1OC,12.5

row,SMILES,"hERG current change (%, negative = inhibition) at 1uM [%]"
1,COc1ccccc1-c1nc(SCC(=O)N2CCOCC2)n[nH]1,11.4
2,CCC(C)[C@H]1CN=C(N)N1CC1CCCCC1 (stereo partly shown),16.2
3,C/C(=N\NC(=O)c1nc(C)cc(C)n1)c1ccccc1,2.61
4,CN(C)CCCNC(=O)/C(=C\C=C\c1ccccc1)NC(=O)c1ccc([N+](=O)[O-])cc1,-42
5,CCOc1ccc(NC(=O)COc2ccc(C(=O)NCc3cccnc3)cc2OC)cc1,15
6,CCC(CO)Nc1ncnc2c1cnn2-c1ccc(Cl)cc1 (stereo not shown),3.06
7,Cc1csc(CNC(=O)c2ccc(OC3CCN(CCc4ccccc4)CC3)cc2)n1,6.97
8,CN1C(=O)C(O)(CC(=O)/C=C\c2ccc3c(c2)OCO3)c2ccccc21 (stereo not shown),8.53
9,C=CCNC(=S)NNC(=O)COc1ccc2cc(Br)ccc2c1,19.6
10,O=C(c1ccccc1)c1ccc(OCC(=O)N2CCOCC2)cc1,3.26
11,N#CC1=C(N)Nc2ncnn2C1c1ccc([N+](=O)[O-])cc1 (stereo not shown),-1.75
12,O=[N+]([O-])c1ncn(Cc2ccccc2Cl)n1,17.3
13,COc1ccccc1N1CCN(C(=O)c2ccc(N(C)S(=O)(=O)c3ccccc3)cc2)CC1,5.55
14,N#Cc1c2ncn(CC(=O)c3ccc(Br)cc3)c(=O)c2c2n1CCC2,6.49
15,CC(/C=C1\SC(=S)N(NC(=O)c2ccccc2C)C1=O)=C\c1ccccc1,10.8
16,O=C(O)COc1ccc(Nc2ccccc2)cc1,0.785
17,CCN(CC)c1ccc(NC(=O)c2ccccc2F)cc1,2.11
18,COc1ccccc1NC(=O)c1ccc(NC(=O)CN2C(=O)CN(C)C2=O)cc1,5.01
19,CCOC(=O)C1Cc2c([nH]c3ccccc23)C(C)N1.Cl (stereo not shown),9.52
20,CCOC(=O)C1CCN(C(=O)c2ccc(OCC(=O)Nc3cccc(C(F)(F)F)c3)cc2)CC1,-4.74
21,CC1CCN(C(=O)CSCc2ccc(Cl)cc2)CC1,11.3
22,O=C(Nc1ccc(Oc2ccccc2)cc1)c1cnc2n(c1=O)CCS2,20.6
23,COc1ccc(C(=O)N2CCCC(CCC(=O)N3CCN(c4ccccn4)CC3)C2)cc1 (stereo not shown),-3.04

row,SMILES,"hERG current change (%, negative = inhibition) at 1uM [%]"
1,N#Cc1cc2c(=O)n3ccccc3nc2n(CCCN2CCOCC2)c1=O,-7.49
2,COc1ccc(C(=O)c2c3ccc(C(F)(F)F)cc3[n+]([O-])n2CCC[NH3+])cc1.[Cl-],-63
3,Cc1cc[n+](-c2[nH]c(=O)sc2/C=N/NC([S-])=Nc2ccccc2)cc1,1.35
4,Cc1cc(=O)[nH]c(SCC(=O)N2CCCCC2)n1,11.2
5,CC(=O)Nc1ccc(Cl)c(C(N)=O)c1,12.8
6,CC(=O)c1ccc(NC(=O)C(Cc2ccccc2)NC(=O)c2ccco2)cc1 (stereo not shown),-3.17
7,COc1cc(-c2nnc(COC(=O)c3ccc(C)o3)o2)cc(OC)c1OC,13.9
8,COc1cccc(NC(=O)CN2CCN(S(=O)(=O)c3ccc(C(C)C)cc3)CC2)c1,-4.1
9,Clc1ccc(-n2ncc3c(NCc4ccco4)ncnc32)cc1,1.14
10,O=C(CSc1ncc(-c2ccc(F)cc2)[nH]1)NCc1ccco1,5.59
11,CC(CN1CCOCC1)OC(=O)c1ccccc1.Cl (stereo not shown),12
12,CCCSCCCNC(=O)CC1Oc2ccccc2NC1=O (stereo not shown),4.39
13,CN(C)NC(=S)Nc1cccc(C(F)(F)F)c1,6.04
14,COc1ccc(-n2cccc2C=O)cc1,6.98
15,Cc1ccc(-c2csc(NNC(=O)c3ccccc3)n2)cc1,4.75
16,COc1cccc(NC(=O)N(Cc2ccco2)C(C)c2cccs2)c1 (stereo not shown),11.7
17,COc1ccc(CC(=O)n2nc(-c3ccc(Cl)cc3)nc2NCc2ccco2)cc1,2.82
18,COC(=O)c1ccc2c(=O)n(-c3ccccc3F)c(=S)[nH]c2c1,3.81
19,O=C(c1ccc(F)cc1)N1CCC(c2ccccc2)C1 (stereo not shown),14.7
20,CC(=O)c1c(C)oc2ccc(N(C(=O)C3CCCCC3)S(=O)(=O)c3cc([N+](=O)[O-])ccc3C)cc12,6.83
21,OC(c1cccs1)c1nccc2ccccc12 (stereo not shown),0.742
22,CCN1CCN(c2c(Cl)cccc2NC(=O)c2ccc3nsnc3c2)CC1,12.5
23,COC(=O)CCC(=O)Nc1ccc(Cl)c(Cl)c1,7.38

row,SMILES,"hERG current change (%, negative = inhibition) at 1uM [%]"
1,Cc1ccc(CNC(=O)c2ccc(Cl)c(S(N)(=O)=O)c2)n1C,9.41
2,COc1ccc(NC(=O)CC(C(=O)O)C(C)c2ccccc2)cc1 (stereo not shown),15.2
3,COC(=O)c1ccccc1OP(=O)(c1cccc([N+](=O)[O-])c1)c1cccc([N+](=O)[O-])c1,7.95
4,CC(C)c1nnc(NC(=O)Cc2ccc(Br)cc2)s1,9.99
5,COCc1c(C(=O)OCc2nc(N)nc(Nc3ccccc3C)n2)oc2ccccc12,10.2
6,O=C(Nc1ccc(Cl)cc1)Nc1ccc(N2CCC(C(F)(F)F)CC2)nc1,5.39
7,COC(=O)C1=C(N)OC2=C(C(=O)CCC2)C1c1ccc2c(c1)OCO2 (stereo not shown),16.8
8,CN(CC(=O)Nc1ccc(Cl)cc1)CC(=O)Nc1cccc(Br)c1,6.58
9,CCCc1cc(Nc2cccc(OCC)c2)n2ncnc2n1,-26
10,Brc1ccc(-c2csc(N3CCC(c4ccccc4)C3)n2)cc1 (stereo not shown),-6.94
11,O=c1c2[nH]c3ccc(F)cc3c2nc2n1CCS2,15.6
12,Cc1occc1C(=O)NNC(=O)c1ccccc1F,8.78
13,CC(=O)OCCNc1nc(-c2ccccc2)nc2ccccc12,5.35
14,CCN(CC(=O)Nc1ccc(Br)cc1)C(=O)Cc1cccc(F)c1,1.16
15,C=C1CCN([C@@H](Cc2ccccc2)C(=O)NCCCc2ccccc2)S(=O)(=O)c2ccccc21,2.78
16,CCCCCn1c(SCCC(C)C)nc2c1c(=O)[nH]c(=O)n2C,7.97
17,CC1=C(C)C(=O)N(CCC(=O)O)C1=O,10.9
18,COc1cc(NC(=O)N[C@@H](Cc2ccccc2)C(=O)O)cc(OC)c1,-2.98
19,CCCc1cc(=O)oc2c(CN(CC)CC)c(O)c(Cl)cc12,-7.25
20,Cc1cccc(N2CCc3c2nc2ccccc2c3N)c1.Cl,-13.8
21,CCNC(=O)c1oc2c(c1C)C(=O)CC(C)(C)C2,11.2
22,O=C(N/N=C/c1cccc([N+](=O)[O-])c1)c1c[nH]c2ccccc12,5.45

# Source: paper PMC4336329 (PLoS ONE, 2015)
